{"source": "PubChem BioAssay AID588591", "about": "(National Center for Advancing Translational Sciences (NCATS), 2011)", "note": "Hit rate of the full screen: of about 390,000 compounds, about 4,700 (1.2%) were called active. Inconclusive results, whose numbers are uncertain, are shown with a selection of clear calls. Calls come from the whole dose curve; as a rule, active = well fitted inhibition curve with a large enough effect; inconclusive = small, poorly fitted or top-dose-only effect, or another doubt; inactive = no such curve, though single readings can be large or run the other way. A potency beside an inconclusive call is a rough fit, not a confirmed value. Potency is the fitted concentration of half-maximal effect; tags give direction and shape of the fitted curve.", "data": [{"target": "DNA polymerase eta (Homo sapiens) (UniProt Q9Y253)", "sequence (Q9Y253 whole entry, looked up)": "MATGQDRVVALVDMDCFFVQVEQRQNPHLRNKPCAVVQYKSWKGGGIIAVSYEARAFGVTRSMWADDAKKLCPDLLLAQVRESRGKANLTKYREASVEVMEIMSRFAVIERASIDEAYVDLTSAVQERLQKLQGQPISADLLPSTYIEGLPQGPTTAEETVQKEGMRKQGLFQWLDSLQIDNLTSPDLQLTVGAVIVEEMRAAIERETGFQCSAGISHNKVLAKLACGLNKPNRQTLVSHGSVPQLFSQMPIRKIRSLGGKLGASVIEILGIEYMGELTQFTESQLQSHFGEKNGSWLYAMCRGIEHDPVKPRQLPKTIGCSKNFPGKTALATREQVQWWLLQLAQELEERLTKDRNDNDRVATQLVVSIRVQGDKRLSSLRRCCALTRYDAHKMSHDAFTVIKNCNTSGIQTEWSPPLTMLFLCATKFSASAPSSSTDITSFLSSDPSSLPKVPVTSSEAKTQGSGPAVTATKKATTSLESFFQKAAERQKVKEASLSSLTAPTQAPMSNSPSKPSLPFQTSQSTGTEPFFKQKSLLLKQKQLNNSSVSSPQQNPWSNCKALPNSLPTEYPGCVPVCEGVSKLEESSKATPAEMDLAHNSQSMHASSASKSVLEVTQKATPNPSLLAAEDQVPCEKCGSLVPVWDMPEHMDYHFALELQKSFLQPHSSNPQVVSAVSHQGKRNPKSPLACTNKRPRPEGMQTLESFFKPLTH", "assay": "qHTS for Inhibitors of Polymerase Eta", "conditions": "recombinant Pol eta, fluorescent DNA replication assay; series mostly up to 114 µM", "text": "The Y-family of DNA polymerases, such as Pol eta, are specifically involved in DNA repair. Pol eta copies undamaged DNA with a lower fidelity than other DNA-directed polymerases. However, it accurately replicates UV-damaged DNA; when thymine dimers are present, this polymerase inserts the complementary nucleotides in the newly synthesized DNA, thereby bypassing the lesion and suppressing the mutagenic effect of UV-induced DNA damage. […] Thus, while pol eta's (and most likely iota's) normal function is to protect humans against the deleterious consequences of DNA damage, under certain conditions they can have deleterious effects on human health. As a consequence, we propose to utilize a high throughput replication assay to identify small molecule inhibitors of pol eta. In a collaboration between the National Institute of Child Health & Human Development (NICHD) and NIH Chemical Genomics Center, a high-throughput, fluorescent screen was developed to screen the NIH Molecular Libraries Small Molecule Repository (MLSMR). This screen is used to identify inhibitors of pol eta. NIH Chemical Genomics Center [NCGC] NIH Molecular Libraries Probe Centers Network [MLPCN] MLPCN Grant: MH090825 Assay Submitter (PI): Roger Woodgate, NICHD)\nThree microliters of reagents (buffer in column 3 and 4 as negative control and 10 nM Pol eta in columns 1, 2, and 5-48) were dispensed into a 1,536-well black solid-bottomed plate. Compounds (23 nL) were transferred via Kalypsys pin tool equipped with 1536-pin array. The plates were then incubated for 15 min at room temperature, and 1 µL substrate (50 nM final concentration) was added to start the reaction and kinetically read twice at 0 min and 10 min on the Viewlux reader", "values": [{"smiles": "CC(C)CCNC(=O)CN1C(=O)CSc2ccc(S(=O)(=O)N3CCCCC3)cc21", "Potency": "inactive"}, {"smiles": "COc1ccc(-c2ccc3nnc(SCC(=O)Nc4ccc(NC(C)=O)cc4)n3n2)cc1", "Potency": "inconclusive: 31.6 µM [inhibitor, single point]"}, {"smiles": "CCCCCCN1C[C@H](n2cc(-c3ccc(F)cc3)nn2)[C@@H](O)C[C@@H]1c1ccc(Cl)cc1", "Potency": "inconclusive: 31.6 µM [inhibitor, partial curve, poor fit]"}, {"smiles": "CCN(CC)CCNC(=O)c1ccc2c(=O)n3nc(Nc4ccccc4OC)sc3nc2c1", "Potency": "inconclusive: 63.1 µM [inhibitor, partial curve, poor fit]"}, {"smiles": "CCCS(=O)(=O)c1c(S(=O)(=O)CCC)c2cnccn2c1C(=O)c1ccc(Cl)cc1", "Potency": "inconclusive: 20 µM [inhibitor, partial curve, poor fit]"}, {"smiles": "COc1ccc(COC(=O)c2sc3nc4n(c(=O)c3c2C)CCC4)cc1", "Potency": "inconclusive: 25.1 µM [inhibitor, partial curve, poor fit]"}, {"smiles": "CCN1C(C(=O)c2ccccc2)=C(OC(=O)c2ccccc2OC)c2ccccc2S1(=O)=O", "Potency": "inactive"}, {"smiles": "C/C(=N\\Nc1ccc(Cl)c(C(=O)O)c1)c1cccc([N+](=O)[O-])c1", "Potency": "inconclusive: 39.8 µM [inhibitor, full curve]"}, {"smiles": "O=C(NCc1cc(C(F)(F)F)ccc1Cl)c1cccc2c1C(=O)c1ccc(N3CCC(N4CCCCC4)CC3)cc1S2(=O)=O", "Potency": "inconclusive: 70.8 µM [inhibitor, partial curve, poor fit]"}, {"smiles": "CCOC(=O)Nc1nnc(/C=C/c2ccc(OC)cc2)s1", "Potency": "inconclusive: 25.1 µM [inhibitor, partial curve, poor fit]"}, {"smiles": "Cc1ccc2cc3cc(C(=O)NCc4ccco4)oc3nc2c1", "Potency": "inconclusive: 15.8 µM [inhibitor, full curve, poor fit]"}, {"smiles": "Cc1ccc(-c2cc(C(=O)N/N=C/C(Br)=C/c3ccccc3)n[nH]2)o1", "Potency": "inactive"}, {"smiles": "O=C1NC(c2cccc3ccccc23)Nc2ccc(Cl)cc21", "note": "(stereo unspecified)", "Potency": "inconclusive: 35.5 µM [inhibitor, partial curve, poor fit]"}, {"smiles": "COc1cccc(COC(=O)c2c(C)nn(-c3ccccc3)c2Cl)c1OC", "Potency": "inconclusive: 79.4 µM [inhibitor, partial curve, poor fit]"}, {"smiles": "COC(=O)C(CC(C)C)NC(=O)CSc1nc(-c2ccccc2)c(C#N)c(=O)[nH]1", "note": "(stereo unspecified)", "Potency": "inactive"}, {"smiles": "CCN(CC)c1ccc(C=Nc2ccc(C)cc2C)c(O)c1", "Potency": "inactive"}, {"smiles": "CCOc1ccccc1NC(=O)c1c(NC(=O)c2cccc(C)c2)sc2c1CCC2", "Potency": "inactive"}, {"smiles": "Cc1c(C(=O)O)sc2nc(CSc3nnc(-c4ccc(F)cc4)n3C)[nH]c(=O)c12", "Potency": "active: 35.5 µM"}, {"smiles": "CCCc1cc(SCC(=O)Nc2c(C)n(C)n(-c3ccccc3)c2=O)n2c(nc3ccccc32)c1C#N", "Potency": "inconclusive: 3.55 µM [inhibitor, full curve, poor fit]"}, {"smiles": "COc1ccc(NC(=O)c2cc(-c3ccc(C)o3)nc3ccccc23)cc1OC", "Potency": "inconclusive: 12.6 µM [inhibitor, full curve, poor fit]"}, {"smiles": "Cc1cc2ccccc2c(=O)n1CC(=O)NCC(=O)N1CCN(c2ccccc2F)CC1", "Potency": "inactive"}, {"smiles": "Cc1ccc(NC(=O)c2ccc(-n3c(C)nnc3C)cc2)cc1F", "Potency": "inactive"}, {"smiles": "COc1ccc(Cn2c(C(=O)O)c(CNCc3ccc(C)o3)c3ccc(C)cc32)cc1", "Potency": "inconclusive: 89.1 µM [inhibitor, partial curve, poor fit]"}, {"smiles": "O=C(O)c1ccc(Cn2ccc3ccccc32)o1", "Potency": "active: 44.7 µM"}, {"smiles": "COc1ccc(OCc2nnc(SCC(=O)c3ccccc3)o2)cc1", "Potency": "inconclusive: 79.4 µM [inhibitor, partial curve, poor fit]"}, {"smiles": "COc1cc(-c2nc3nc(C)cc(C)n3c2Nc2ccc(Cl)cc2)ccc1O", "Potency": "inactive"}, {"smiles": "O=C(Nc1ccc2c(c1)[nH]c(=O)c1ccccc12)C(F)(F)F", "Potency": "inconclusive: 15.8 µM [inhibitor, full curve, poor fit]"}, {"smiles": "CC1=C(C(=O)OC(C)(C)C)C(c2ccc3ccccc3c2)NC(=O)N1C", "note": "(stereo unspecified)", "Potency": "inconclusive: 50.1 µM [inhibitor, full curve, poor fit]"}, {"smiles": "Cc1ccc(OCC(=O)Nc2cc(NC(=O)COc3ccc(C)c(C)c3)cc(C(=O)O)c2)cc1C", "Potency": "inconclusive: 56.2 µM [inhibitor, partial curve, poor fit]"}, {"smiles": "CSc1nsc2nc(=O)c(/C=C3\\C=Nc4ccccc43)c(N)n12", "Potency": "inconclusive: 35.5 µM [inhibitor, partial curve]"}, {"smiles": "COc1cccc(/C=C/C(=O)Nc2ccc3nc(N4CCN(C)CC4)cc(C)c3c2)c1OC", "Potency": "inconclusive: 35.5 µM [inhibitor, partial curve]"}, {"smiles": "O=C(c1ccco1)N1C2C=CC(C2)C1(C(F)(F)F)C(F)(F)F", "note": "(stereo unspecified)", "Potency": "active: 35.5 µM"}, {"smiles": "CC(C)=CC(=O)Nc1nnc(-c2ccccc2C)s1", "Potency": "inactive"}, {"smiles": "COc1ccc(OCc2nnc(SCC(=O)Nc3cccc(Cl)c3)o2)cc1", "Potency": "inactive"}, {"smiles": "COc1ccc(NC(=O)CO/N=C/C(=O)Nc2ccccc2C)c([N+](=O)[O-])c1", "Potency": "inconclusive: 89.1 µM [inhibitor, partial curve, poor fit]"}, {"smiles": "O=C1C=C(Nc2ccc(F)cc2)c2ccccc2C1=O", "Potency": "inconclusive: 35.5 µM [inhibitor, partial curve, poor fit]"}, {"smiles": "CC(C)c1nc2sc3c(SCC(=O)NCc4ccco4)ncnc3c2c2c1CCC2", "Potency": "active: 6.31 µM"}, {"smiles": "CC(=O)Nc1ccc(NC(=O)COC(=O)[C@@H]2CCCN2C(=O)c2cccs2)cc1", "Potency": "inconclusive: 79.4 µM [inhibitor, partial curve, poor fit]"}, {"smiles": "Cc1cccc(N=C2NC(=O)/C(=C/C=C/c3ccco3)S2)c1", "Potency": "active: 20 µM"}, {"smiles": "Cc1cccc(C)c1-n1cccc1/C=C1/C(=N)N2C(=NC1=O)SN=C2S(C)(=O)=O", "Potency": "active: 79.4 µM"}, {"smiles": "COc1ccc(C)cc1N(C(=O)c1snc(C(N)=O)c1N)C(C(=O)NC1CCCC1)c1ccc(F)cc1", "note": "(stereo unspecified)", "Potency": "inconclusive: 89.1 µM [inhibitor, partial curve, poor fit]"}]}]}
